Source: PubChem BioAssay AID1963576 (National Center for Advancing Translational Sciences (NCATS), 2024)
In all, about 46,000 compounds went through this assay and about 60 (0.1%) were called active. Not shown: some 3% with an inconclusive outcome. Calls follow the shape of the dose curve; as a rule, active = well fitted inhibition curve with a large enough effect; inconclusive = small, poorly fitted or top-dose-only effect; inactive = no such curve, though single readings can be large or run the other way. Some of the results follow.

test: Primary qHTS assay for Inhibitors of ovarian cancer metastasis using an organotypic tumor microenvironment (TME) model.; also: nearly all actives have a fitted effect of over 65% in size;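 as to activity change, negative = inhibition: plate controls were DMSO wells for no effect and tomatine positive control wells for full effect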; details: SKOV3ip1-GFP adhesion/invasion on 3D omental model, fluorescence; series mostly up to 45.8 µM; activity change, negative = inhibition: at the top concentration
Procedure, shortened: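 A 3D layer of primary human omental fibroblasts, mesothelial cells, fibronectin and collagen I, grown 48 hr, received SKOV3ip1-GFP cells in serum-free medium plus compounds at 0.36-46 umol/L. After 2 hr RT and 16 hr 37 C, fixed adherent GFP cells were counted; normalized to DMSO and tomatine.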

Activity change, negative = inhibition, inactive:
Cc1ccc(C(=O)c2cn(Cc3ccccc3)c3ccccc3c2=O)cc1 16.2%
Cc1cccc(NC(=O)c2oc3ccccc3c2NC(=O)Cc2coc3cc(C)cc(C)c23)c1 8.45%
Cc1ccccc1OCC(=O)Nc1ccccc1C(=O)OCc1cc(=O)n2nc(C3CC3)sc2n1 -0.317%
COc1ccc(N2CCN(C(=O)Nc3ccccc3Cl)CC2)cc1 -3.6%
CCc1ccccc1NC(=O)Cn1c(=O)n(CCc2ccccc2)c(=O)c2ccccc21 5.54%
CCCC(=O)n1nc(-c2cccnc2)nc1NCc1ccccc1 0.163%
CCOc1ccc(NC(=O)CCC(=O)N2CCSc3ccccc32)cc1 6.82%
Clc1ccccc1-c1nnc(SCc2nc(-c3ccccc3)no2)n1-c1ccccc1 -3.5%
COc1cccc(NC(=O)CSC2=Nc3ccccc3C3=NC(CC(=O)NCc4ccccc4OC)C(=O)N23)c1 (configuration not stated) 0.847%
CCCCNC(=O)CCSc1nc(-c2ccc3c(c2)OCO3)cc(C(F)(F)F)n1 -16.3%
COc1ccc(NS(=O)(=O)c2c(C)nc3scc(C)n3c2=O)cc1 -2.41%
Cc1ccnc2nc(NC(=O)c3ccccc3Cl)nn12 -6.7%
COc1ccc(C2C=C(c3ccccc3)Nc3nc(NC(=O)/C=C/c4ccccc4OC)nn32)cc1 (configuration not stated) -2.42%
Cc1cccc(OCC(=O)N(Cc2ccc(N(C)C)cc2)Cc2ccco2)c1C 4.33%
CCOc1ccc(NC(=O)c2c(NCc3cccs3)sc3c2CCCCC3)cc1 24.5%
COC(=O)c1scc(-c2ccccc2)c1S(=O)(=O)Nc1ccc(C)c(Cl)c1 -13.5%
O=C(NCC1CCCCN1)c1cc(OCC(F)(F)F)ccc1OCC(F)(F)F (configuration not stated) 9.92%
CC(=O)c1cc(-c2ccccc2)n(CCC(=O)NC2CCCCC2)c1C -8.12%
CC12CN3CC(c4ccccc4)(CN(C1)C3c1ccc(Cl)cc1)C2=O (configuration not stated) -8.99%
CCc1ccc(S(=O)(=O)c2nnn3c2nc(NC(C)C)c2cc(Cl)ccc23)cc1 1.58%
CCC(=O)N1CCc2cc(Br)cc(S(=O)(=O)N3CCCC(C(=O)Nc4ccc(OC)cc4OC)C3)c21 (configuration not stated) 6.46%
Cc1cccc(N(CC(=O)N(C)Cc2ccccc2)S(=O)(=O)c2ccccc2)c1C 5.65%

outcome, inactive:
O=C(NCCc1ccc(Cl)cc1)c1ccc(CSCc2ccc(Cl)cc2)o1
O=c1oc2ccc(Cl)cc2cc1-c1cn2c(n1)sc1ccccc12
CCOC(=O)N1CCN(S(=O)(=O)N2CCCC(C(=O)NCc3ccc(OC)cc3OC)C2)CC1 (configuration not stated)
O=C(Nc1ccc2nc(SCC(=O)N3CCOCC3)sc2c1)c1cccc(F)c1
COc1ccccc1CNC(=O)c1ccc(CS(=O)c2ccccc2Cl)o1 (configuration not stated)
